PubChem BioAssay AID1963983 (Molecular Pharmacology Branch, DTP, NCI, 2024)
The source holds more than one record for some entries. The other results are left out here. There may be further records. Values that stand side by side are repeats (runs, samples, wells, individuals or studies). Each block holds one compound with its values, some of them ahead of it.

Test system: 186277-243-T-J2-PDC multi-cell spheroid viability
Experiment: Anticancer human tumor 186277-243-T-J2-PDC patient-derived colon adenocarcinoma cell line growth inhibition [PI3K]
Conditions: for IC50: compound alone; for viability, T/C: stronger effect = lower value
Source text: Combinatorial screen of targeted agents with the PI3K inhibitors inavolisib, alpelisib, duvelisib, and copanlisib in multi-cell type tumor spheroids
A high-throughput screen of multi-cell type tumor spheroids was designed to identify active combinations of targeted small molecules and PI3K pathway inhibitors. Complex spheroids include a stromal component modeled by human endothelial cells (HUVEC) and fibroblasts modeled by human mesenchymal stem cells (MSCs). The concentration ranges selected for each drug and investigational agent were based upon clinically achievable concentrations if the clinical Cmax of the agent was known.
Compounds. The drugs and investigational agents: inavolisib (NSC800729), alpelisib (NSC765974), duvelisib (NSC772469), copanlisib (NSC816437), ipatasertib (NSC767898), afuresertib (NSC778305), talazoparib (NSC767125), sapanisertib (NSC764658), selumetinib (NSC741078), tovorafenib (DAY101, NSC766906), vemurafenib (NSC761431), ravoxertinib (NSC781343), sotorasib (NSC818433), MRTX1133 (NSC 836407), abemaciclib (NSC 768073), palbociclib (NSC758247), venetoclax (NSC 766270), SY5609 (NSC837396), enzalutamide (NSC755605), and darolutamide (NSC825331), were obtained from the National Cancer Institute (NCI) Developmental Therapeutics Program Chemical Repository. The FDA-approved anticancer drug set is available from the NCI Developmental Therapeutics Program. […] The stock solutions were prepared in dimethyl sulfoxide (DMSO, Sigma-Aldrich, St. Louis, MO, cat. D2650) at 800-fold the tested concentration and stored at -70 degrees C prior to their use. All drugs and investigational agents were tested over a range starting from a high concentration at or near the clinical Cmax and decreasing in half-log increments. If the clinical Cmax for an agent had not been determined, the highest concentration tested was 10 microM.
Cell Culture. All cells were maintained in an incubator at 37 degrees C and 5% CO2 with 95% humidity. The PDC lines were cultured according to standard operating procedures established by the NCI PDMR (https://pdmr.cancer.gov/sops/default.htm). All PDCs were thawed and cultured in Matrigel-coated flasks prepared with a working solution of 1X Ham's F-12 nutrient mix, without supplementation (Invitrogen, Waltham, MA, cat. 11765054), 100 U/mL penicillin-streptomycin (Invitrogen, cat. 15140122), and 2.5% Matrigel (Corning Inc., Corning, NY, cat. 354248) for the first three passages. The 354836-022-R-J1-PDC, 475296-252-R-J1-PDC, and 997726-040-R-J2-PDC lines were cultured in 6A media, which includes advanced DMEM/F-12 (Thermo Fisher Scientific, cat. 12634028), 10 mM HEPES (Thermo Fisher Scientific, cat. 15630080), 1X GlutaMAX supplement (Thermo Fisher Scientific, cat. 35050061), 0.1 mg/mL primocin (InvivoGen, San Diego, CA, cat. ant-pm-2), 10% defined fetal bovine serum, heat inactivated (HyClone Laboratories Inc., Logan, UT, cat. SH30070.03HI), 50% L-WRN conditioned media (ATCC, cat. CRL-3276), 1.25 mM N-Acetyl-L-cysteine (Sigma-Aldrich, cat. A9165), 10 mM nicotinamide (Sigma-Aldrich, cat. N0636), 1X B-27 supplement (Thermo Fisher Scientific, cat. 17504044), 1X N-2 supplement (Thermo Fisher Scientific, cat. 17502048), and 10 microM Y-27632 dihydrochloride (Tocris Bioscience, Bristol, United Kingdom, cat. 1254). The 624824-186-R-J2-PDC line was cultured in 6C/Colon 1B media, which includes all 6A media components plus 50 ng/mL human EGF recombinant protein (Thermo Fisher Scientific, cat. PHG0311). […]
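Further: spheroids exposed to compounds for seven days before viability reading.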
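Wherever viability, T/C is given: 100% = DMSO vehicle control viability.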

IC50: 4.15 µM, 4.45 µM, 5.05 µM, > 10 µM
Structure (SMILES): CC1(C)CCC(CN2CCN(c3ccc(C(=O)NS(=O)(=O)c4ccc(NCC5CCOCC5)c([N+](=O)[O-])c4)c(Oc4cnc5[nH]ccc5c4)c3)CC2)=C(c2ccc(Cl)cc2)C1
viability, T/C (compound alone 3.16 µM): 64, 68.8, 85.3, 103% | viability, T/C (compound alone 10 µM): 4.93, 5.53, 4, 102%

Structure (SMILES): Cn1ncnc1[C@H]1c2n[nH]c(=O)c3cc(F)cc(c23)N[C@@H]1c1ccc(F)cc1
viability, T/C (compound alone 0.0316 µM): 109, 94.7, 114, 87%

Structure (SMILES): CC(C)n1nc(-c2ccc3oc(N)nc3c2)c2c(N)ncnc21
viability, T/C (compound alone 0.01 µM): 78.9, 106, 99.6, 96.4%

IC50 (run of 05/08/2023): > 1 µM, 961 nM, 997 nM, 932 nM
Structure (SMILES): CC(Nc1ccc2c(c1)OCCn1cc(N3C(=O)OCC3C(F)F)nc1-2)C(N)=O (stereo not given)
viability, T/C (compound alone 0.0316 µM): 96.6, 116, 98.5, 118, 96.1, 88.7, 107, 99.6%

Structure (SMILES): Cc1nc(NC(=O)N2CCCC2C(N)=O)sc1-c1ccnc(C(C)(C)C(F)(F)F)c1 (stereo not given)
viability, T/C (compound alone 0.0316 µM): 107, 96.2, 117, 94.5, 103, 95.1, 87.5, 95.8%

Structure (SMILES): CC(=O)c1c(C)c2cnc(Nc3ccc(N4CCNCC4)cn3)nc2n(C2CCCC2)c1=O
viability, T/C (compound alone 0.0316 µM): 123, 121, 100, 94.1% | viability, T/C (compound alone 0.1 µM): 165, 120, 113, 117%
